Experimental findings from publication PMC9911399, “Two distinct binding modes provide the RNA-binding protein RbFox with extraordinary sequence specificity” are described below.

T1: RBFOX1 RRM RbFoxmut (Fox-RRM*) (Homo sapiens, UniProt Q9NWB1 109-208, R118D;E147R;N151S;E152T)
T1 sequence: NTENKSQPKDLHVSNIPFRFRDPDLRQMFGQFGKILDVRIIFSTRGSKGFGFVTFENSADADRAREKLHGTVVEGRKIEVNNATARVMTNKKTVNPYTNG

B1: UAUCGUU (DNA:RNA)
RNA: GGGAGACCGGAAUUCAGAUUGUCCUAUCGUUUUAAAUCCCGUCGUAGCCACCA
DNA 1: CAATCTGAATTCCGGTCTCCC
DNA 2: TGGTGGCTACGACGGGATT
B2: CACUAGA (DNA:RNA)
RNA: B1 RNA with U25C, U27C, C28U, G29A, U30G, U31A
DNA 1: CAATCTGAATTCCGGTCTCCC
DNA 2: TGGTGGCTACGACGGGATT
B3: UGCGCGU (DNA:RNA)
RNA: B1 RNA with A26G, U27C, C28G, G29C, U30G
DNA 1: CAATCTGAATTCCGGTCTCCC
DNA 2: TGGTGGCTACGACGGGATT
B4: AGGCACA (DNA:RNA)
RNA: B1 RNA with U25A, A26G, U27G, G29A, U30C, U31A
DNA 1: CAATCTGAATTCCGGTCTCCC
DNA 2: TGGTGGCTACGACGGGATT
B5: GCCUGGG (DNA:RNA)
RNA: B1 RNA with U25G, A26C, U27C, C28U, U30G, U31G
DNA 1: CAATCTGAATTCCGGTCTCCC
DNA 2: TGGTGGCTACGACGGGATT
B6: CUUAGCG (DNA:RNA)
RNA: B1 RNA with U25C, A26U, C28A, U30C, U31G
DNA 1: CAATCTGAATTCCGGTCTCCC
DNA 2: TGGTGGCTACGACGGGATT
B7: AUGUUAA (DNA:RNA)
RNA: GGGAGACCGGAAUUCAGAUUGUCCAUGUUAAUUAAAUCCCGUCGUAGCCACCA
DNA 1: CAATCTGAATTCCGGTCTCCC
DNA 2: TGGTGGCTACGACGGGATT
B8: CCUGAUG (DNA:RNA)
RNA: B1 RNA with U25C, A26C, C28G, G29A, U31G
DNA 1: CAATCTGAATTCCGGTCTCCC
DNA 2: TGGTGGCTACGACGGGATT
B9: AUCCACA (DNA:RNA)
RNA: B7 RNA with G27C, U28C, U29A, A30C
DNA 1: CAATCTGAATTCCGGTCTCCC
DNA 2: TGGTGGCTACGACGGGATT
B10: UGGAGCU (DNA:RNA)
RNA: B1 RNA with A26G, U27G, C28A, U30C
DNA 1: CAATCTGAATTCCGGTCTCCC
DNA 2: TGGTGGCTACGACGGGATT
B11: CCAUUCA (DNA:RNA)
RNA: B7 RNA with A25C, U26C, G27A, A30C
DNA 1: CAATCTGAATTCCGGTCTCCC
DNA 2: TGGTGGCTACGACGGGATT
B12: AGAGUGG (DNA:RNA)
RNA: B7 RNA with U26G, G27A, U28G, A30G, A31G
DNA 1: CAATCTGAATTCCGGTCTCCC
DNA 2: TGGTGGCTACGACGGGATT
B13: CGAGGAA (DNA:RNA)
RNA: B7 RNA with A25C, U26G, G27A, U28G, U29G
DNA 1: CAATCTGAATTCCGGTCTCCC
DNA 2: TGGTGGCTACGACGGGATT
B14: CAUUUCG (DNA:RNA)
RNA: B7 RNA with A25C, U26A, G27U, A30C, A31G
DNA 1: CAATCTGAATTCCGGTCTCCC
DNA 2: TGGTGGCTACGACGGGATT
B15: AUGUUCA (DNA:RNA)
RNA: B7 RNA with A30C
DNA 1: CAATCTGAATTCCGGTCTCCC
DNA 2: TGGTGGCTACGACGGGATT
B16: AGGCCCU (DNA:RNA)
RNA: B7 RNA with U26G, U28C, U29C, A30C, A31U
DNA 1: CAATCTGAATTCCGGTCTCCC
DNA 2: TGGTGGCTACGACGGGATT
B17: AUUGGUU (DNA:RNA)
RNA: B1 RNA with U25A, A26U, C28G
DNA 1: CAATCTGAATTCCGGTCTCCC
DNA 2: TGGTGGCTACGACGGGATT
B18: CGUGCUC (DNA:RNA)
RNA: B1 RNA with U25C, A26G, C28G, G29C, U31C
DNA 1: CAATCTGAATTCCGGTCTCCC
DNA 2: TGGTGGCTACGACGGGATT
B19: AGCAUAU (DNA:RNA)
RNA: B7 RNA with U26G, G27C, U28A, A31U
DNA 1: CAATCTGAATTCCGGTCTCCC
DNA 2: TGGTGGCTACGACGGGATT
B20: UCUACUG (DNA:RNA)
RNA: B1 RNA with A26C, C28A, G29C, U31G
DNA 1: CAATCTGAATTCCGGTCTCCC
DNA 2: TGGTGGCTACGACGGGATT
B21: CCGUGCG (DNA:RNA)
RNA: B7 RNA with A25C, U26C, U29G, A30C, A31G
DNA 1: CAATCTGAATTCCGGTCTCCC
DNA 2: TGGTGGCTACGACGGGATT
B22: UGACGAC (DNA:RNA)
RNA: B1 RNA with A26G, U27A, U30A, U31C
DNA 1: CAATCTGAATTCCGGTCTCCC
DNA 2: TGGTGGCTACGACGGGATT
B23: GUGCCUG (DNA:RNA)
RNA: B7 RNA with A25G, U28C, U29C, A30U, A31G
DNA 1: CAATCTGAATTCCGGTCTCCC
DNA 2: TGGTGGCTACGACGGGATT
B24: GAAAGAC (DNA:RNA)
RNA: B1 RNA with U25G, U27A, C28A, U30A, U31C
DNA 1: CAATCTGAATTCCGGTCTCCC
DNA 2: TGGTGGCTACGACGGGATT
B25: ACGUCGC (DNA:RNA)
RNA: B7 RNA with U26C, U29C, A30G, A31C
DNA 1: CAATCTGAATTCCGGTCTCCC
DNA 2: TGGTGGCTACGACGGGATT
B26: AGAGAGG (DNA:RNA)
RNA: B7 RNA with U26G, G27A, U28G, U29A, A30G, A31G
DNA 1: CAATCTGAATTCCGGTCTCCC
DNA 2: TGGTGGCTACGACGGGATT
B27: AUAGCCA (DNA:RNA)
RNA: B7 RNA with G27A, U28G, U29C, A30C
DNA 1: CAATCTGAATTCCGGTCTCCC
DNA 2: TGGTGGCTACGACGGGATT
B28: ACCGUGA (DNA:RNA)
RNA: B7 RNA with U26C, G27C, U28G, A30G
DNA 1: CAATCTGAATTCCGGTCTCCC
DNA 2: TGGTGGCTACGACGGGATT
B29: UGGUAGU (DNA:RNA)
RNA: B7 RNA with A25U, U26G, U29A, A30G, A31U
DNA 1: CAATCTGAATTCCGGTCTCCC
DNA 2: TGGTGGCTACGACGGGATT
B30: GACUAGC (DNA:RNA)
RNA: B7 RNA with A25G, U26A, G27C, U29A, A30G, A31C
DNA 1: CAATCTGAATTCCGGTCTCCC
DNA 2: TGGTGGCTACGACGGGATT
B31: GAUUUUA (DNA:RNA)
RNA: B7 RNA with A25G, U26A, G27U, A30U
DNA 1: CAATCTGAATTCCGGTCTCCC
DNA 2: TGGTGGCTACGACGGGATT

Where a chain is given by its changes, count along the chain named. The list shows a part of the results.

For the experiment, the target named is T1, RBFOX1 RRM RbFoxmut (Fox-RRM*). Description: EMSA; HiTS-Eq, 1 nM pool, 10 min; buffer printed only for the single-RNA assays: 10 mM Tris pH 7.5, 150 mM NaCl, 3.4 mM EDTA, 0.001% NP-40, 30 C. Particulars: tags: His6 N-terminal (pET28a); label: 5' 32P. The essentials: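 Purified RbFox RRM, wild type or mutant, was incubated for 10 min in 50 µL with 1 nM of a 5′-radiolabelled RNA pool carrying 7 randomized nucleotides, whose flanks were annealed to DNA oligonucleotides, over a series of increasing protein concentrations. Unbound RNA was resolved on 8% native PAGE, cut out, reverse-transcribed, barcoded by PCR and sequenced on an Illumina HiSeq 2500. Relative association constants were derived from changes in read counts for each RNA species versus the control reaction and normalised to the cognate motif.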
Background: A gel shift assay detects complexes by their altered migration in electrophoresis.
In the case of B1, the binding signal was 0.0894 KA relative to UGCAUGU.
Take B2: the binding signal was 0.122 KA relative to UGCAUGU.
Take B3: the binding signal is 0.153 KA relative to UGCAUGU.
For B4, the binding signal is 0.0759 KA relative to UGCAUGU.
For B5, the binding signal was 0.104 KA relative to UGCAUGU.
On to B6, for which the binding signal is 0.119 KA relative to UGCAUGU.
Turning to B7, the binding signal was 0.154 KA relative to UGCAUGU.
With B8 the figure was 0.0848 KA relative to UGCAUGU; with B9, 0.118 KA relative to UGCAUGU.
With B10, the binding signal is 0.0871 KA relative to UGCAUGU.
Consider B11, for which the binding signal is 0.0985 KA relative to UGCAUGU.
Turning to B12, the binding signal was 0.107 KA relative to UGCAUGU.
In the case of B13, the binding signal was 0.0902 KA relative to UGCAUGU.
Next, B14: 0.113 KA relative to UGCAUGU.
Turning to B15, the binding signal was 0.144 KA relative to UGCAUGU.
In the case of B16, the binding signal was 0.0519 KA relative to UGCAUGU.
B17: the binding signal was 0.0958 KA relative to UGCAUGU.
Next, B18: 0.0731 KA relative to UGCAUGU.
Regarding B19, the binding signal was 0.133 KA relative to UGCAUGU.
Next, B20: 0.112 KA relative to UGCAUGU; B21: 0.137 KA relative to UGCAUGU; B22: 0.069 KA relative to UGCAUGU.
For the molecule B23, the binding signal was 0.317 KA relative to UGCAUGU.
Regarding B24, the binding signal is 0.0496 KA relative to UGCAUGU.
As for B25, the binding signal was 0.0954 KA relative to UGCAUGU.
Consider B26, for which the binding signal was 0.092 KA relative to UGCAUGU.
Take B27: the binding signal was 0.117 KA relative to UGCAUGU.
With B28 the figure was 0.0705 KA relative to UGCAUGU; with B29, 0.163 KA relative to UGCAUGU.
Consider B30, for which the binding signal is 0.0831 KA relative to UGCAUGU.
B31: the binding signal is 0.0965 KA relative to UGCAUGU.
